# Test results reported in PubChem BioAssay AID1347165 (National Center for Advancing Translational Sciences (NCATS), 2019).
# Out of some 220,000 compounds screened, about 5,700 (2.6%) were called active. The shares of active, inactive and inconclusive entries below differ from those in the screen. Calls come from the whole dose curve; as a rule, active = well fitted inhibition curve with a large enough effect; inconclusive = small, poorly fitted or top-dose-only effect; inactive = no such curve, though single readings can be large or run the other way. A potency beside an inconclusive call is a rough fit, not a confirmed value.
# Target: Lysine-specific demethylase 5B (Homo sapiens) (UniProt Q9UGL1)
# Sequence of UniProt Q9UGL1 (Q9UGL1 whole entry, looked up): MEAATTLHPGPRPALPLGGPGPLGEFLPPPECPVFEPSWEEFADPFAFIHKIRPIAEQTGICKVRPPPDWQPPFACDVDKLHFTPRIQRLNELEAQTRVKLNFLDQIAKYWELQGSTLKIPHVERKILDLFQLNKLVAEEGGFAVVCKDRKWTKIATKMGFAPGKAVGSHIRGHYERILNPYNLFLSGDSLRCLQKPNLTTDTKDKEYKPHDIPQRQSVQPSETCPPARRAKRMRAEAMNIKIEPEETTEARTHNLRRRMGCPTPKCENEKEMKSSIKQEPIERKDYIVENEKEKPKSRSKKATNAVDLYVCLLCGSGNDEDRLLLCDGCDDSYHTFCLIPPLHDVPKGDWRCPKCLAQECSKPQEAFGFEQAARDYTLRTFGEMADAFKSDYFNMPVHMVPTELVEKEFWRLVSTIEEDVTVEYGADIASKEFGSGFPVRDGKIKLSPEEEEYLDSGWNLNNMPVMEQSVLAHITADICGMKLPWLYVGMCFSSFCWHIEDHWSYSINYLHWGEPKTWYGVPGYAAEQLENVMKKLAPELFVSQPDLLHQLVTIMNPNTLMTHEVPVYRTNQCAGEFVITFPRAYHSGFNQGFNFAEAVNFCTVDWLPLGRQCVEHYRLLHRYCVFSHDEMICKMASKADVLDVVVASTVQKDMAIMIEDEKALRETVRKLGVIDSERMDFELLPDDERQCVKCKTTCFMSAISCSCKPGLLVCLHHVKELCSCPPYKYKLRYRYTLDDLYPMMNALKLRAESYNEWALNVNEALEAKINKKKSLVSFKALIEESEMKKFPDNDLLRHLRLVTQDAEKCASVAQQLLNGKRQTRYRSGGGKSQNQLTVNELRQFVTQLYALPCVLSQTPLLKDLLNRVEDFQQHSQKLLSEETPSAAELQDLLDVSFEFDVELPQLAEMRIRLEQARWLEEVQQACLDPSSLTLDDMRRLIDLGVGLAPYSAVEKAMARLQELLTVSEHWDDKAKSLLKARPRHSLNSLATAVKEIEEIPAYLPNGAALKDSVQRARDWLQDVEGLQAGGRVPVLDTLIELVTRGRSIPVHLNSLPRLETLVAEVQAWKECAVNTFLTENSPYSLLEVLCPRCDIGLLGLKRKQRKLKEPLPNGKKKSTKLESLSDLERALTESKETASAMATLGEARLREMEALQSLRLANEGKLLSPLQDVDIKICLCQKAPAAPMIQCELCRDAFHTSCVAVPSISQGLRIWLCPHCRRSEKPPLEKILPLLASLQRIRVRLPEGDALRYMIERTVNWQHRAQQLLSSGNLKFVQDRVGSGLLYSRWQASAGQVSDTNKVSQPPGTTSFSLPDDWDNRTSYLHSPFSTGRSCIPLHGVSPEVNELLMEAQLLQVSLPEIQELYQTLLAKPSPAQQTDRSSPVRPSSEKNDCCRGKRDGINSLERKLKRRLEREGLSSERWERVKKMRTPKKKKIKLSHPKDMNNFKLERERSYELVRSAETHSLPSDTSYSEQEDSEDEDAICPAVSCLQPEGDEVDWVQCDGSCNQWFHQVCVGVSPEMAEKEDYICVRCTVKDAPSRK
# Assay: Primary screen for KDM5B Histone Demethylases FDH-coupled qHTS; note: nearly all actives have a fitted effect of over 70% in size
# Details: FDH-coupled NADH fluorescence (FDH is formaldehyde dehydrogenase); series mostly up to 57.7 µM
# Source text: Assay Submitter (PI): Qin Yan, Ph.D. (Yale University) and Xiaodong Cheng, Ph.D. (MD Anderson) This project was funded as part of the NCI NEXT Program and Chemical Biology Consortium (CBC) The histone demethylases, KDM5A and KDM5B catalyze the demethylation of lysine 4 on histone H3 (H3K4me3/2). They are overexpressed in a variety of cancers and have been implicated in cancer cell growth, metastasis, drug resistance, and tumor growth. KDM5A is amplified and overexpressed in breast and gastric cancer; and is translocated in leukemia. While KDM5B is highly expressed in human mammary tumors and breast cancer cell lines, but not in normal adult breast tissue. Moreover, knockdown of KDM5B leads to upregulation of tumor suppressor genes, including BRCA1. The goal of this project is to employ qHTS to identify selective small molecule inhibitors of KDM5A/B demethylase activity to better understand the role of KDM5 in cancer and to develop novel therapies. We employed an FDH-coupled assay previously reported by Sakurai et al. to monitor in vitro KDM5 demethylase activity. Compounds showing dose response inhibition are re-acquired, validated, and tested for non-specific interference with the formaldehyde dehydrogenase (FDH) counterscreen. True inhibitors are validated using an AlphaLisa secondary screen, which employs an H3K4(me2-1)-specific antibody to monitor demethylation of a biotin-tagged H3K4(me3) peptide substrate. Inhibitors are profiled against KDM4A and KDM6A AlphaLisa counterscreens to determine level of demethylase specificity; and against the TruHits counterscreen to eliminate non-specific inhibitory activity on the AlphaLISA detection method. Selective inhibitors identified from the primary and secondary screening are tested in cells using immunofluorescence to monitor global H3K4 tri-methylation as a measure of KDM5A/B inhibition. Early Translation Branch (ETB) National Center for Advancing Translational Sciences (NCATS), Rockville, MD National Institute of Health (NIH), Bethesda, Maryland [1] Sakurai, M et al. A miniaturized screen for inhibitors of Jumonji histone demethylases. Mol Biosyst. 2010 Feb;6(2):357-64. doi: 10.1039/b912993f. Epub 2009 Oct 8.
# Materials: 1536-well Black, solid bottom, medium binding assay plate is purchased from Greiner Bio-one. The enzymes (KDM5B) and substrate (H3K4me3/2) are provided by the principal investigators. The buffer for this assay is composed of 50mM HEPES at pH 7.5 with 0.01% Tween-20. FDH coupled Demethylase qHTS protocol: Three microliter enzyme mix (buffer + 200nM KDM5BDeltaAP final concentration) is dispensed into the assay plate using the BioRAPTR Flying Reagent Dispenser (FRD; […]). Compound (at various final concentration) and control solution is pin transferred to the assay plate using the Kalypsys 1536-pin tool apparatus. The assay plate is incubated for 10 min at room temperature followed by addition of 1uL substrate mix (buffer + 100uM ascorbic acid, 50uM ferrous ammonium sulfate, 12.5uM H3K4Me3, 25uM a-ketoglutarate, 0.25 mM NAD+, 0.25 U/mL formaldehyde dehydrogenase using the FRD yielding a total reaction volume of 4 uL. Initial fluorescence (Read1) is detected using the PerkinElmer ViewLux plate reader equipped with 340 nm excitation and 450 nm emission filters. The final fluorescence (Read2) signal is obtained after 30 min of room temperature incubation. Delta RFU is calculated (Read2 - Read1) and is used to generated dose response curves.
# Potency is the fitted concentration of half-maximal effect; tags give direction and shape of the fitted curve.
row,SMILES,Potency
1,O=c1ccc(-c2ccccc2)c2n1C[C@H]1C[C@@H]2CN(S(=O)(=O)c2cccs2)C1,"inconclusive: 35.5 µM [inhibitor, single point]"
2,NC1CCCN(Cc2cccnc2)C1 (stereo not drawn),inactive
3,O=[N+]([O-])/C=C/c1c[nH]c2ccccc12,"inconclusive: 22.4 µM [inhibitor, partial curve, poor fit]"
4,Cc1ccccc1-c1ccc2n(c1=O)C[C@H]1C[C@@H]2CN(C(=O)CCC(=O)O)C1,"inconclusive: 35.5 µM [inhibitor, partial curve, poor fit]"
5,CCOC(=O)[C@]1(C#N)[C@@H]2C=CC(C(N)=O)=CN2[C@@H](C(N)=O)[C@@H]1c1ccc(F)cc1,"inconclusive: 39.8 µM [inhibitor, single point]"
6,CN1CCN(C(=O)Cc2c[nH]c3ncc(-c4cccc(F)c4)cc23)CC1,active: 28.2 µM
7,CCCNC(=O)c1cn(Cc2ccccc2)c2ccccc12,inactive
8,C=CCn1c(O)c(/C(C)=N/NC(=S)Nc2ccccc2)c(=O)[nH]c1=O,"inconclusive: 25.1 µM [inhibitor, partial curve, poor fit]"
9,FC(F)(F)CN1C2CCC1CN(c1ccccn1)C2,"inconclusive: 112 µM [inhibitor, single point]"
10,O=c1c(-c2cccs2)ccc2n1C[C@H]1C[C@@H]2CN(Cc2cc3ccccc3o2)C1,active: 31.6 µM
11,CCCS(=O)(=O)Nc1ccc(=O)n2c1[C@@H]1C[C@@H](CN(C(=O)c3ccc(F)cc3)C1)C2,inactive
12,CN1CCN(C(=O)Cc2c[nH]c3ncc(-c4ccsc4)cc23)CC1,active: 39.8 µM
13,CCn1c(O)c(/C=N/NC(=O)c2ccccc2)c(=O)n(CC)c1=S,"inconclusive: 39.8 µM [inhibitor, single point]"
14,Cc1ccc(C(=O)C(C)(C)NO)cc1,"inconclusive: 28.2 µM [inhibitor, single point]"
15,O=c1c2ccccc2nc(/C=C/c2ccccc2F)n1-c1cccc(O)c1,"inconclusive: 28.2 µM [inhibitor, partial curve, poor fit]"
16,Cc1ccc(N2C(=O)NC(=O)C3(Cc4cc(C)ccc4N(C)C3)C2=O)c(C)c1 (stereo not drawn),"inconclusive: 14.1 µM [inhibitor, partial curve, poor fit]"
17,COCCCn1c(N)c(C(=O)NCc2ccco2)c2nc3ccccc3nc21,"inconclusive: 22.4 µM [inhibitor, partial curve, poor fit]"
18,O=C1NCCCCCCN(Cc2ccncc2)[C@@H]2CN(C(=O)COc3ccccc3)CC[C@@H]12,"inconclusive: 20 µM [inhibitor, partial curve, poor fit]"
19,CN(C)c1ccc(C(=O)NC[C@H]2C[C@@H]3CCN2C[C@@H]3CN2CCN(c3ccc(F)cc3)CC2)cc1,inactive
20,COc1ccc(-c2cc([C@H]3CN4CC[C@H]3C[C@@H]4CNC(=O)C3CCCCC3)n(C)n2)cc1,inactive
21,O=C(COc1ccc(F)cc1)N1CCN(CCc2ccncc2)CC1,inactive
22,O=C(O)c1cccc(C(=O)N2C[C@@H]3C[C@H](C2)c2ccc(NC(=O)C4CC4)c(=O)n2C3)c1,"inconclusive: 39.8 µM [inhibitor, partial curve, poor fit]"
23,Cc1nc(-c2cccs2)cc([C@H]2CN3CC[C@H]2C[C@@H]3CNC(=O)N2CCOCC2)n1,"inconclusive: 35.5 µM [inhibitor, single point]"

row,SMILES,Potency
1,CC(N)Cc1ccc(N(C)C)cc1 (stereo not drawn),"inconclusive: 35.5 µM [inhibitor, single point]"
2,O=C1CO[C@H]2CN(Cc3ccccn3)C[C@H]2N1c1ccccc1,inactive
3,C/C(=C\c1c[nH]c2ccccc12)[N+](=O)[O-],"inconclusive: 39.8 µM [inhibitor, single point]"
4,COc1cc2c(cc1OCc1ccccc1)N(C(=O)COc1ccccc1)CC21CCN(C)CC1,inactive
5,CCCCCCC(=O)N/N=C/c1c(O)n(CCCC)c(=S)[nH]c1=O,"inconclusive: 25.1 µM [inhibitor, single point]"
6,CN(C)c1ccc(CC(=O)N2CCN(Cc3ccccc3)CC(O)C2)cc1 (stereo not drawn),"inconclusive: 17.8 µM [inhibitor, single point]"
7,CC(=O)N1C[C@@H]2C[C@H](C1)c1ccc(NC(=O)Nc3ccccc3)c(=O)n1C2,active: 28.2 µM
8,CCNC(=O)NC[C@H]1C[C@@H]2CCN1C[C@@H]2c1cc(-c2ccccc2)nc(C)n1,"inconclusive: 25.1 µM [inhibitor, partial curve]"
9,Cn1cc([N+](=O)[O-])c(C(=O)Nc2ccc3c(C(F)(F)F)cc(=O)oc3c2)n1,"inconclusive: 31.6 µM [inhibitor, partial curve, poor fit]"
10,CC(=O)NN1C(=O)c2ccccc2NC1c1cccnc1 (stereo not drawn),"inconclusive: 25.1 µM [inhibitor, partial curve, poor fit]"
11,O=C1N(c2ccccn2)C[C@H]2CN(Cc3ccc(F)cc3)CCN12,"inconclusive: 28.2 µM [inhibitor, partial curve]"
12,Cc1ccc2c(n1)N(C)[C@H](CO)CCN(Cc1ccco1)C2,"inconclusive: 31.6 µM [inhibitor, partial curve, poor fit]"
13,CC(C)Cc1nc2cccnc2n1C1CCNCC1,inactive
14,Cc1cc(=O)oc2cc(OCC(=O)N3CCN(CCO)CC3)c(Cl)cc12,"inconclusive: 39.8 µM [inhibitor, single point]"
15,CCOc1ccc(CN(CCc2ccc3c(c2)OCO3)Cc2ccc(C)cc2)cc1,"inconclusive: 5.62 µM [inhibitor, partial curve, poor fit]"
16,Cc1nn(-c2ncnc3nc[nH]c23)c2c1C(c1ccc(F)c(F)c1)SCC(=O)N2 (stereo not drawn),inactive
17,CCN1CCCNCC12CCOCC2,"inconclusive: 39.8 µM [inhibitor, single point]"
18,O=C(COC(=O)C(O)(c1ccccc1)c1ccccc1)c1c[nH]c2ccccc12,inactive
19,c1ccc(C2CN3CCCC3CN2)cc1 (stereo not drawn),"inconclusive: 100 µM [inhibitor, partial curve]"
20,CC(C)CCN1CCC2(CC1)CC(c1cccnc1)=NO2,inactive
21,CC(=O)Nc1ccc(S(=O)(=O)NC[C@H]2C[C@@H]3CCN2C[C@@H]3c2cc(-c3ccc(F)cc3)nn2C)cc1,inactive
22,COc1cc2c(cc1OCC1CC1)NC(=O)C21CCN(c2nccc(C(F)(F)F)n2)CC1,active: 22.4 µM
23,FC(F)(F)CN1C2CCC1CN(c1ccc(C(F)(F)F)cn1)C2,inactive

row,SMILES,Potency
1,COc1cc2c(cc1OCC1CC1)NC(=O)C21CCN(c2cnccn2)CC1,"inconclusive: 31.6 µM [inhibitor, partial curve]"
2,CC(C)(C)N1C(=O)NC(=O)/C(=C\c2ccc3c(c2)CCN3CCCCl)C1=O,"inconclusive: 28.2 µM [inhibitor, single point]"
3,Cc1ccc(NC(=O)Cn2cc(C(=O)c3ccccc3)c3ccccc32)c(C)c1,"inconclusive: 28.2 µM [inhibitor, partial curve, poor fit]"
4,Cc1[nH]nc2c1C(c1ccc(-c3cccc(Cl)c3)o1)SCC(=O)N2 (stereo not drawn),"inconclusive: 11.2 µM [inhibitor, partial curve, poor fit]"
5,O=C(O)C1=NOC2CN(CC3CCNC3)CC12 (stereo not drawn),active: 141 µM
6,CCn1cc(CN2CCN(C(=O)Cc3c(C)noc3C)CC2)ccc1=O,active: 11.2 µM
7,COc1ccc(CNCCc2c(C)[nH]c3ccc(OC)cc23)c(F)c1,"inconclusive: 25.1 µM [inhibitor, partial curve, poor fit]"
8,O=C1NCc2ccccc2CC12CCCN2Cc1ccnc(Cl)c1 (stereo not drawn),"inconclusive: 28.2 µM [inhibitor, full curve, poor fit]"
9,COc1cccc([C@@H]2CCN(Cc3[nH]c4ccccc4c3C)C[C@H]2O)c1,"inconclusive: 14.1 µM [inhibitor, partial curve]"
10,N#Cc1c(N)nc2c(c1-c1ccc(OCc3ccccc3F)cc1)c(=O)nc1sccn12,inactive
11,O=c1c(-c2cccs2)ccc2n1C[C@H]1C[C@@H]2CN(C2CCOCC2)C1,active: 35.5 µM
12,O=C1NC(=O)N(Cc2ccc(F)cc2)C(=O)/C1=C\c1ccc([N+](=O)[O-])s1,"inconclusive: 12.6 µM [inhibitor, partial curve, poor fit]"
13,CCCC1=Nc2cc(C(=O)NCCCN(CC)CC)ccc2Sc2ccccc21,"inconclusive: 10 µM [inhibitor, partial curve, poor fit]"
14,COC(=O)c1sccc1NC(=O)N1[C@H]2CC[C@@H]1c1cncnc1C2,inactive
15,COc1ccc([C@@H]2CN(C(=O)c3sccc3C)[C@@H]3C4CCN(CC4)[C@@H]32)cc1,inactive
16,O=C1N(Cc2ccccn2)C[C@H]2CN(Cc3nccs3)CCN12,"inconclusive: 22.4 µM [inhibitor, partial curve]"
17,Cc1noc(C)c1C(=O)N1C2CCC1CN(C(C)C)C2,inactive
18,CC(C)(C)CN1CCCC2(CC(c3cccnc3)=NO2)C1 (stereo not drawn),"inconclusive: 56.2 µM [inhibitor, partial curve, poor fit]"
19,Cc1ccc(C)c(CC(=O)N2CCN(CCO)CC(O)C2)c1 (stereo not drawn),"inconclusive: 20 µM [inhibitor, single point]"
20,COc1ccc(NC(=O)c2cn(C)c3ccccc23)c(OC)c1,"inconclusive: 20 µM [inhibitor, partial curve, poor fit]"
21,C=C[C@H]1CN2CC[C@H]1C[C@@H]2CNCc1ccc(OC(F)(F)F)cc1,inactive
22,COc1cc2c(cc1CCc1ccccc1)N([S+](=O)([O-])c1ccc3c(c1)CCO3)CC21CCN(C(C)=O)CC1,active: 28.2 µM
